Experimental data taken from the supplement of paper PMC11417369.
Some of the results follow.

Test system: PfSIP2 AP2 domain 1 (GST-tagged)
Assay: gcPBM binding intensity (ln(normalized median fluorescence intensity)); higher = stronger DNA binding
In short: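 Using an Agilent 4 × 180k array, primer-extended double-stranded 36-bp intergenic genomic probes and negative controls were exposed for 1 h to GST-fused P. falciparum DNA-binding domains expressed in E. coli. Binding was carried out in 1× PBS with 1% milk, 0.2 mg/ml BSA, 0.5% salmon testes DNA and 0.03% Triton X-100, and protein was detected with Alexa488 anti-GST antibody and a 488 nm scan. Binding intensity is the highest Masliner-normalised natural-log median intensity across replicate spots of either probe orientation.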

Sequence	gcPBM binding intensity (ln)
AATATATTTCATTTTTGTACACACAACGTTGGAGGG [XGTACX_site6461]	7.27
TATATATATTTATGCACACAAAATATATTATAGAAT [CACACA_site3740]	7.48
AATGTTTATTTTGTTTGTACATAAAATGAATAAAAT [XGTACX_site1456]	7.17
GTTATATATTTTTATGCATGCATTTTTAAATATATA [TGCATGCA_site175]	7.39
ATACATAAATTTTGTACACACAAAAAAAAAAAAGCT [CACACA_site1351]	7.03
TTTATATATATAAATATGTAGATAACAATATTCTGA [TGCATGCA_negctrl_site554]	6.89
TTATTCCTTTTCCTTTTTTTTTTTTAACCAAAAAAA [CACACA_negctrl_site309]	7.13
AAAATATACATATATGCATGCATATAAATAAAAAAA [TGCATGCA_site812]	7.2
GATAAAACGTTATGCACACGTACGTGAGTATTTATA [CACACA_site1570]	7.17
AATGATAAATAAAAAGCATGCAACAAATAAAAATAA [TGCATGCA_site453]	7.07
AACAAAACTTTGGATACATGCAAAATTTTTAAATGA [TGCATGCA_site249]	6.69
GTTTTTTTGTTTTAAAGTACTTAAAAAAAAAATATA [XGTACX_site6998]	7.22
GGTATACACAAGTATACACACATATAAATATAAATA [CACACA_site7511]	6.98
TCTTTTAACACATGTGATATTATTTAATAACAATAA [CACACA_negctrl_site339]	6.91
TGTACATATATATATATATATGTTACTGAAATAAAA [CACACA_negctrl_site1658]	7.53
AAGAATAACTTTTATACATGCAGCATAATATATTGT [TGCATGCA_site605]	6.93
CTTTTATAATTCATATGTACTTATTTTTAACATAGG [XGTACX_site7808]	7.07
AATAACCACAGACACACACACATATAAATATAAATA [CACACA_site7631]	7.15
GTGATTAATATATACACACATACATATATATATATA [CACACA_site2817]	9.13

Sequence	gcPBM binding intensity (ln)
ATATATATGTATACATGTACATATTTTATTATGTGC [XGTACX_site7207]	7.06
TTACAGATATTTATCTGTACATATATTTAAAAATAT [XGTACX_site7431]	6.9
TAATTTTTTTAAAAGCGTACATTTAAAAAAAAATAT [XGTACX_site2736]	7.26
AAAAGTAAAAAAAAAAAAAGTAAAAAAAAAAAAAAA [CACACA_negctrl_site389]	6.8
TTTTTAAATTCTTTAATATGTTTTATATATCAAAAT [CACACA_negctrl_site75]	6.7
TCTTATCATTTTAAATCACACACATATATATATATA [CACACA_site8925]	9.54
TTATTTTATTTAGGGTGTACCCAATTTTTCCATATG [XGTACX_site4957]	6.78
ACTGTAATATTGAAAGTGCATTAAAGTGTATATTAT [GTGCAC_site9970]	8.04
ATTTATATTTATAAATGTACACATATATATTTCATT [XGTACX_site2723]	7.09
TCCTATAATTTTTTAATCAAAATATTTTATCCTTTG [CACACA_negctrl_site793]	6.82
AAAAATTTTTTACATCGTACAGATATATATAATAAA [XGTACX_site3331]	7.05
GGATGCACACAAAAGGGTACATAAGAAAAAAACAGG [XGTACX_site8570]	7.64
CACGCACAGATATATACACACTTTTATTTAAATAAC [CACACA_site6852]	7.41
AAAAATAAAATGGACACACACGTTCAAATTTAGATT [CACACA_site5186]	6.81
TGGGTAAACAAACACACACACATATATATATATATA [CACACA_site1992]	9.19
AAATATATATATAGTTGTACATATATCGTATATATT [XGTACX_site7867]	7.04
TTCACTAATAAATACGCACACATATACAGATATATA [CACACA_site4887]	7.24
AGTTGTTACGAACATACACACGAACATAGACACGGA [CACACA_site8102]	7.12
TTATTTAAATAATATGTACACACATTTAAAAAATTA [CACACA_site8912]	7.04

Sequence	gcPBM binding intensity (ln)
AAAAAAAAATATATAAACACACATATTTATATACAC [GTGCAC_negctrl_site545]	6.87
ATGAGTGTAATAATATGTACATAACCTACATAATTT [XGTACX_site852]	7.09
GCACACATATAATAATGTACATATATATATTTAAAA [XGTACX_site4561]	7.29
TATTGATTATTTGAATGTACTTATTATATTAAATAT [XGTACX_site1304]	6.91
ACACGCACATATATATAAATATATATATATATAAAT [CACACA_negctrl_site1781]	7.35
AATAAAAATATTTTTACATGCAAATGTTATATATTT [TGCATGCA_site1056]	7.07
AAAAAAAATTATTATGAACACACATTTATTATATTC [CACACA_site8443]	6.68
ATTCTACACAGACATACACACATATATATATATATA [CACACA_site5826]	9.35
TATATATGTTTATGTAGTACTATATATCCCTTTCTT [XGTACX_site7049]	7
TAATATGATCTTAATAGTACTTTATTAATAATAACC [XGTACX_site1953]	6.95
AAAAAAAAAAGACACACACACAAAAAAAGATATATA [CACACA_site6645]	6.81
TAGAATAAGATAGATATACACACCATTATAAATATA [CACACA_site2500]	6.78
TTACAAAATAAGAGGCACAAACACAAAAAAAAATAA [CACACA_negctrl_site574]	6.95
ATAAAAATATTACGCACACACAAACTTATTCATTAT [CACACA_site1969]	7.21
GTAACTTTATTATACTGTACTATTATATAAGCACAC [XGTACX_site2859]	7.42
TTGTTCAAACAAAAAATAAAATAATTGAAAATAAAA [CACACA_negctrl_site812]	6.87
TGTAAAAAATTTAACACACACATATATATATATATA [CACACA_site2585]	9.65
ATTACAATATATACGTGTACATATTACCACCGCTAC [XGTACX_site2308]	7.01
